{"source": "the supplement of paper PMC8728848", "binders": {"B1": {"name": "PA-IL (Pseudomonas aeruginosa), Q05097 (protein)", "chain": "MAWKGEVLANNEAGQVTSIIYNPGDVITIVAAGWASYGPTQKWGPQGDREHPDQGLICHDAFCGALVMKIGNSGTIPVNTGLFRWVAPNNVQGAITLIYNDVPGTYGNNSGSFSVNIGKDQS"}}, "assay_in_all_cases": "glycan array binding signal (z-score within array); higher = stronger binding", "details_in_all_cases": "glycan notation: IUPAC condensed, linker removed", "key": {"[1]": {"molecular_target": "Gal(b1-4)GlcNAc(b1-3)GalNAc", "how_it_was_run": "(§1)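 Columns mapping to the same glycan were averaged after glycan names were converted to IUPAC-condensed notation. The data come from 3228 arrays in the Consortium for Functional Glycomics database, limited to those with an available protein sequence. Binding is reported as a within-array Z-score averaged across arrays of one protein sequence and across linkers.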"}, "[2]": {"molecular_target": "Gal(b1-4)GlcNAc(b1-3)[Fuc(a1-3)GlcNAc(b1-6)]Gal(b1-4)Glc", "how_it_was_run": "as §1"}, "[3]": {"molecular_target": "Gal(b1-4)GlcNAc(b1-3)[Gal(b1-4)GlcNAc(b1-6)]Gal(b1-4)GlcNAc", "how_it_was_run": "as §1"}, "[4]": {"molecular_target": "Gal(b1-4)GlcNAc(b1-3)[Gal(b1-4)GlcNAc(b1-6)]GalNAc", "how_it_was_run": "as §1"}, "[5]": {"molecular_target": "Gal(b1-4)GlcNAc(b1-3)[GlcNAc(b1-6)]Gal(b1-4)GlcNAc", "how_it_was_run": "as §1"}, "[6]": {"molecular_target": "Gal(b1-4)GlcNAc(b1-6)Gal(b1-4)GlcNAc", "how_it_was_run": "as §1"}, "[7]": {"molecular_target": "Gal(b1-4)GlcNAc(b1-6)GalNAc", "how_it_was_run": "as §1"}, "[8]": {"molecular_target": "Gal(b1-4)GlcNAc(b1-6)[Gal(b1-3)]GalNAc", "how_it_was_run": "as §1"}, "[9]": {"molecular_target": "Gal(b1-4)GlcNAc(b1-6)[Gal(b1-4)GlcNAc(b1-3)]GalNAc", "how_it_was_run": "as §1"}, "Gal(b1-4)GlcNAc6P": {"molecular_target": "Gal(b1-4)GlcNAc6P", "how_it_was_run": "as §1"}, "Gal(b1-6)Gal": {"molecular_target": "Gal(b1-6)Gal", "how_it_was_run": "as §1"}, "Gal3S(b1-3)GalNAc": {"molecular_target": "Gal3S(b1-3)GalNAc", "how_it_was_run": "as §1"}, "Gal3S(b1-3)GlcNAc": {"molecular_target": "Gal3S(b1-3)GlcNAc", "how_it_was_run": "as §1"}, "[10]": {"molecular_target": "Gal3S(b1-3)[Fuc(a1-4)]GlcNAc", "how_it_was_run": "as §1"}, "Gal3S(b1-4)Glc": {"molecular_target": "Gal3S(b1-4)Glc", "how_it_was_run": "as §1"}, "Gal3S(b1-4)Glc6S": {"molecular_target": "Gal3S(b1-4)Glc6S", "how_it_was_run": "as §1"}, "Gal3S(b1-4)GlcNAc": {"molecular_target": "Gal3S(b1-4)GlcNAc", "how_it_was_run": "as §1"}, "Gal3S(b1-4)GlcNAc6S": {"molecular_target": "Gal3S(b1-4)GlcNAc6S", "how_it_was_run": "as §1"}, "[11]": {"molecular_target": "Gal3S(b1-4)[Fuc(a1-3)]Glc", "how_it_was_run": "as §1"}, "[12]": {"molecular_target": "Gal3S(b1-4)[Fuc(a1-3)]Glc6S", "how_it_was_run": "as §1"}, "[13]": {"molecular_target": "Gal3S(b1-4)[Fuc(a1-3)]GlcNAc", "how_it_was_run": "as §1"}, "[14]": {"molecular_target": "Gal3S(b1-4)[Fuc(a1-3)]GlcNAc6S", "how_it_was_run": "as §1"}, "Gal3S4S(b1-4)GlcNAc": {"molecular_target": "Gal3S4S(b1-4)GlcNAc", "how_it_was_run": "as §1"}, "Gal3S6S(b1-4)GlcNAc": {"molecular_target": "Gal3S6S(b1-4)GlcNAc", "how_it_was_run": "as §1"}, "Gal3S6S(b1-4)GlcNAc6S": {"molecular_target": "Gal3S6S(b1-4)GlcNAc6S", "how_it_was_run": "as §1"}, "Gal4S(b1-4)GlcNAc": {"molecular_target": "Gal4S(b1-4)GlcNAc", "how_it_was_run": "as §1"}, "Gal4S6S(b1-4)GlcNAc": {"molecular_target": "Gal4S6S(b1-4)GlcNAc", "how_it_was_run": "as §1"}, "Gal6P(b1-4)GlcNAc": {"molecular_target": "Gal6P(b1-4)GlcNAc", "how_it_was_run": "as §1"}, "Gal6S(b1-3)GlcNAc": {"molecular_target": "Gal6S(b1-3)GlcNAc", "how_it_was_run": "as §1"}, "Gal6S(b1-3)GlcNAc6S": {"molecular_target": "Gal6S(b1-3)GlcNAc6S", "how_it_was_run": "as §1"}, "Gal6S(b1-4)Glc": {"molecular_target": "Gal6S(b1-4)Glc", "how_it_was_run": "as §1"}, "Gal6S(b1-4)Glc6S": {"molecular_target": "Gal6S(b1-4)Glc6S", "how_it_was_run": "as §1"}, "Gal6S(b1-4)GlcNAc": {"molecular_target": "Gal6S(b1-4)GlcNAc", "how_it_was_run": "as §1"}, "Gal6S(b1-4)GlcNAc6S": {"molecular_target": "Gal6S(b1-4)GlcNAc6S", "how_it_was_run": "as §1"}, "GalNAc(a1-3)Gal": {"molecular_target": "GalNAc(a1-3)Gal", "how_it_was_run": "as §1"}, "GalNAc(a1-3)GalNAc": {"molecular_target": "GalNAc(a1-3)GalNAc", "how_it_was_run": "as §1"}, "[15]": {"molecular_target": "GalNAc(a1-3)GalNAc(a1-3)Gal(a1-4)Gal(b1-4)GlcNAc", "how_it_was_run": "as §1"}, "[16]": {"molecular_target": "GalNAc(a1-3)GalNAc(b1-3)Gal(a1-4)Gal(b1-4)Glc", "how_it_was_run": "as §1"}, "[17]": {"molecular_target": "GalNAc(a1-3)GalNAc(b1-3)Gal(a1-4)Gal(b1-4)GlcNAc", "how_it_was_run": "as §1"}, "GalNAc(b1-3)Gal": {"molecular_target": "GalNAc(b1-3)Gal", "how_it_was_run": "as §1"}, "[18]": {"molecular_target": "GalNAc(b1-3)Gal(a1-4)Gal(b1-4)GlcNAc", "how_it_was_run": "as §1"}, "[19]": {"molecular_target": "GalNAc(b1-3)Gal(a1-4)Gal(b1-4)GlcNAc(b1-3)Gal(b1-4)Glc", "how_it_was_run": "as §1"}, "[20]": {"molecular_target": "GalNAc(b1-3)Gal(a1-6)Gal(b1-4)Glc", "how_it_was_run": "as §1"}, "GalNAc(b1-3)GalNAc": {"molecular_target": "GalNAc(b1-3)GalNAc", "how_it_was_run": "as §1"}, "GalNAc(b1-3)GlcNAc": {"molecular_target": "GalNAc(b1-3)GlcNAc", "how_it_was_run": "as §1"}}, "note": "Some of the results follow."}
{"binder": "B1", "values": [{"measurement": "glycan array binding signal (z-score)", "setting": "[1]", "value": -0.223}, {"measurement": "glycan array binding signal (z-score)", "setting": "[2]", "value": -0.157}, {"measurement": "glycan array binding signal (z-score)", "setting": "[3]", "value": -0.028}, {"measurement": "glycan array binding signal (z-score)", "setting": "[4]", "value": -0.216}, {"measurement": "glycan array binding signal (z-score)", "setting": "[5]", "value": -0.179}, {"measurement": "glycan array binding signal (z-score)", "setting": "[6]", "value": -0.235}, {"measurement": "glycan array binding signal (z-score)", "setting": "[7]", "value": -0.213}, {"measurement": "glycan array binding signal (z-score)", "setting": "[8]", "value": -0.219}, {"measurement": "glycan array binding signal (z-score)", "setting": "[9]", "value": -0.19}, {"measurement": "glycan array binding signal (z-score)", "setting": "Gal(b1-4)GlcNAc6P", "value": -0.226}, {"measurement": "glycan array binding signal (z-score)", "setting": "Gal(b1-6)Gal", "value": 0.287}, {"measurement": "glycan array binding signal (z-score)", "setting": "Gal3S(b1-3)GalNAc", "value": -0.215}, {"measurement": "glycan array binding signal (z-score)", "setting": "Gal3S(b1-3)GlcNAc", "value": -0.229}, {"measurement": "glycan array binding signal (z-score)", "setting": "[10]", "value": -0.225}, {"measurement": "glycan array binding signal (z-score)", "setting": "Gal3S(b1-4)Glc", "value": -0.23}, {"measurement": "glycan array binding signal (z-score)", "setting": "Gal3S(b1-4)Glc6S", "value": -0.228}, {"measurement": "glycan array binding signal (z-score)", "setting": "Gal3S(b1-4)GlcNAc", "value": -0.219}, {"measurement": "glycan array binding signal (z-score)", "setting": "Gal3S(b1-4)GlcNAc6S", "value": -0.223}, {"measurement": "glycan array binding signal (z-score)", "setting": "[11]", "value": -0.23}, {"measurement": "glycan array binding signal (z-score)", "setting": "[12]", "value": -0.083}, {"measurement": "glycan array binding signal (z-score)", "setting": "[13]", "value": -0.236}, {"measurement": "glycan array binding signal (z-score)", "setting": "[14]", "value": -0.233}, {"measurement": "glycan array binding signal (z-score)", "setting": "Gal3S4S(b1-4)GlcNAc", "value": -0.222}, {"measurement": "glycan array binding signal (z-score)", "setting": "Gal3S6S(b1-4)GlcNAc", "value": -0.233}, {"measurement": "glycan array binding signal (z-score)", "setting": "Gal3S6S(b1-4)GlcNAc6S", "value": -0.22}, {"measurement": "glycan array binding signal (z-score)", "setting": "Gal4S(b1-4)GlcNAc", "value": -0.227}, {"measurement": "glycan array binding signal (z-score)", "setting": "Gal4S6S(b1-4)GlcNAc", "value": -0.225}, {"measurement": "glycan array binding signal (z-score)", "setting": "Gal6P(b1-4)GlcNAc", "value": -0.274}, {"measurement": "glycan array binding signal (z-score)", "setting": "Gal6S(b1-3)GlcNAc", "value": -0.224}, {"measurement": "glycan array binding signal (z-score)", "setting": "Gal6S(b1-3)GlcNAc6S", "value": -0.223}, {"measurement": "glycan array binding signal (z-score)", "setting": "Gal6S(b1-4)Glc", "value": -0.225}, {"measurement": "glycan array binding signal (z-score)", "setting": "Gal6S(b1-4)Glc6S", "value": -0.234}, {"measurement": "glycan array binding signal (z-score)", "setting": "Gal6S(b1-4)GlcNAc", "value": -0.232}, {"measurement": "glycan array binding signal (z-score)", "setting": "Gal6S(b1-4)GlcNAc6S", "value": -0.225}, {"measurement": "glycan array binding signal (z-score)", "setting": "GalNAc(a1-3)Gal", "value": 0.41}, {"measurement": "glycan array binding signal (z-score)", "setting": "GalNAc(a1-3)GalNAc", "value": 0.409}, {"measurement": "glycan array binding signal (z-score)", "setting": "[15]", "value": 0.29}, {"measurement": "glycan array binding signal (z-score)", "setting": "[16]", "value": 0.067}, {"measurement": "glycan array binding signal (z-score)", "setting": "[17]", "value": 0.119}, {"measurement": "glycan array binding signal (z-score)", "setting": "GalNAc(b1-3)Gal", "value": -0.229}, {"measurement": "glycan array binding signal (z-score)", "setting": "[18]", "value": -0.23}, {"measurement": "glycan array binding signal (z-score)", "setting": "[19]", "value": -0.228}, {"measurement": "glycan array binding signal (z-score)", "setting": "[20]", "value": -0.225}, {"measurement": "glycan array binding signal (z-score)", "setting": "GalNAc(b1-3)GalNAc", "value": -0.219}, {"measurement": "glycan array binding signal (z-score)", "setting": "GalNAc(b1-3)GlcNAc", "value": -0.221}]}
